Screen size: about 310,000 compounds; about 2,200 (0.71%) showed an effect of 50% or more. The effect is printed as a negative number. The list shows a part of the results.

human ether-à-go-go-related gene (hERG) potassium channel, sequence (Q12809 whole entry, looked up): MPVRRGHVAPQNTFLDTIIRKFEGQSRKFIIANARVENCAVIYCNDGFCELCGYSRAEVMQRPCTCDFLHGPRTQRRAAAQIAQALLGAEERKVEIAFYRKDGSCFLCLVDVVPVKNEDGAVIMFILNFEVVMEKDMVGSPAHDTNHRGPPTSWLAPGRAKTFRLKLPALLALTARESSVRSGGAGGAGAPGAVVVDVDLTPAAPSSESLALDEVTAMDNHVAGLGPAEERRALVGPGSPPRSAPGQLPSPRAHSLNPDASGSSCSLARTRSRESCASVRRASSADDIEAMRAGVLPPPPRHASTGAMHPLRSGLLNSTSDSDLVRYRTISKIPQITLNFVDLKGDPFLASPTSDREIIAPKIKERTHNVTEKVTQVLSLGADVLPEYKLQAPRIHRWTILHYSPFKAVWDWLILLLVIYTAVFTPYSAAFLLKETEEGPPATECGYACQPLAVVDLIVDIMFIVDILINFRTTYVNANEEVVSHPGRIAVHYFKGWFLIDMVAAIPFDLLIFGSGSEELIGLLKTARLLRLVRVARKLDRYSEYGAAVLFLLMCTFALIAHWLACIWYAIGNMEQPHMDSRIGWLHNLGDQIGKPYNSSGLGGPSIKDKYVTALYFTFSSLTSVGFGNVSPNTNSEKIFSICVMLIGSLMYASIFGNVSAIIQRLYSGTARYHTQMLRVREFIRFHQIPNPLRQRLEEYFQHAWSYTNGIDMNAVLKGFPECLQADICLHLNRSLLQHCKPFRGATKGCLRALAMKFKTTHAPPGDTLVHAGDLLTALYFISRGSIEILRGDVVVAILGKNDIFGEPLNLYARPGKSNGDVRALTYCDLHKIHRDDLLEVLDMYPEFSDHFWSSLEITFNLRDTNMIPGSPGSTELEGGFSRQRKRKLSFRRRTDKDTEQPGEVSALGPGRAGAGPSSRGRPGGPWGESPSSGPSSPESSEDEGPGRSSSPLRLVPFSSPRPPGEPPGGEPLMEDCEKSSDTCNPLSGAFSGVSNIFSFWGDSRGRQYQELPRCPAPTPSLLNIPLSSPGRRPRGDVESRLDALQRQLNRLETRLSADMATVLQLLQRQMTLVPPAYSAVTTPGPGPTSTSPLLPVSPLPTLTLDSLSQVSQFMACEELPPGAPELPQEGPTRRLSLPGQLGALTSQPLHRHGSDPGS

The assay concerns the target human ether-à-go-go-related gene (hERG) potassium channel (human, UniProt Q12809). In words: primary screen, population patch clamp on CHO cells stably expressing hERG.
On to `COc1ccc(C(=O)N/C(=C\c2ccc(OC)c(OC)c2)C(=O)N2CCCCC2)cc1`, for which the “hERG current change (%, negative = inhibition) at 1uM” value amounted to 12%.
The figure for `O=C(NCc1ccccc1)c1nccnc1CO` is 17.1%; for `CN(Cc1ccc(F)cc1)C(=O)CNC(=O)c1ccc2c(c1)OCO2` it is 26.5%.
To `C=CCNc1nc2ccccc2nc1NS(=O)(=O)c1ccc(Cl)cc1` belongs 7.59%; to `O=C(/C=C/c1cccc(Br)c1)NC1CCN(Cc2ccccc2)CC1`, -27.7%.
As for `COc1ccccc1OP(=O)(O)Oc1ccccc1OC`, the “hERG current change (%, negative = inhibition) at 1uM” value came to 8.48%.
The figure for `COc1ccc(CCNC2=NCC(C)S2)cc1` (centres unmarked) is 14.4%.
To `COc1cc(NC(=O)CSc2nc(=O)n(CCCN3CCOCC3)c3c2CCC3)cc(OC)c1` belongs -1.74%; to `CCC(=O)Nc1sc2c(c1C(=O)N(C)C)CCCCC2`, 15.4%.
In the case of `CCOP(=O)(c1ccccc1)C(O)c1ccccc1` (centres unmarked), the “hERG current change (%, negative = inhibition) at 1uM” value was 21.5%.
To `CC(C)(C)NC(=O)C(c1cccs1)N(CC1CCCO1)C(=O)c1ccc(-c2ccccc2)[nH]1` (centres unmarked) belongs 19.9%.
To `c1ccc(C2CC(c3cccs3)Nc3nnnn32)cc1` (centres unmarked) belongs 0.531%; to `O=C(CCCn1c(=S)[nH]c2ccccc2c1=O)NCCSCc1ccccc1`, 0.956%.
To `CC1CN(S(=O)(=O)c2cccc(C(F)(F)F)c2)CN1C(=O)N1CCOCC1` (centres unmarked) belongs 12%.
`CC1Cc2nc(SCC(=O)NCc3ccco3)n(Cc3ccccc3)c(=O)c2S1` (centres unmarked): the “hERG current change (%, negative = inhibition) at 1uM” value is 0.486%.
To `CC(=O)Nc1ccc(OCC(O)Cn2nc(C)nc2C)cc1` (centres unmarked) belongs 16.7%; to `Cc1cc(=O)oc2cc(OCC(=O)OCC(=O)N(CCC#N)c3ccccc3)ccc12`, 13.6%; to `CCOC(=O)C(C(=O)OCC)C(C)C#CCN1CCCCC1` (centres unmarked), 4.43%.
To `COc1cc2c(C(=O)N(C)c3ccc(F)cc3)cn(C)c(=O)c2cc1OC` belongs 16.1%.
The figure for `Cc1cc(S(=O)(=O)Nc2ccc(C(=O)NCC(c3ccco3)N(C)C)cc2)ccc1F` (centres unmarked) is -0.374%.
Turning to `CCN(CC(=O)NCCN1CCOCC1)S(=O)(=O)c1ccc(F)cc1`, the “hERG current change (%, negative = inhibition) at 1uM” value was 9.38%.
The figure for `Cc1nc2c(c(N3CCOCC3)n1)OCC(=O)N2` is 3.44%; for `CCOC(=O)CNC(=O)CSc1ccc(-c2nc3ccccc3[nH]2)cn1` it is 4.05%; for `COc1ccc(Cl)cc1NC(=O)CN(C)C1CCCCC1` it is -4.31%.
The figure for `O=C(CSc1ccc(-c2ccco2)nn1)c1cccc([N+](=O)[O-])c1` is 4.71%; for `Cc1c(O)ccc2c(=O)c(Oc3ccccc3)coc12` it is 17.4%.
To `COc1ccccc1OCCOCCOc1ccc(C)cc1[N+](=O)[O-]` belongs 6.27%.
For `CCOC(=O)c1c(C)[nH]c(C(=O)N2CCc3cc(OC)c(OC)cc3C2)c1C`, the “hERG current change (%, negative = inhibition) at 1uM” value came to 1.03%.
To `O=S(=O)(c1cccc(S(=O)(=O)N2CCCC2)c1)c1cccc(S(=O)(=O)N2CCCC2)c1` belongs 2.77%; to `Clc1ccccc1N1CCN(Cc2c[nH]c3ccccc23)CC1`, 7.93%.
To `CC(=O)Nc1ccc(NC(=O)CN(c2cccc(C(C)=O)c2)S(C)(=O)=O)cc1` belongs 5.75%; to `O=C(Nc1cccc2ccccc12)c1ccccc1NS(=O)(=O)c1cccc2cccnc12`, 2.69%.
To `Nc1c(N(CCO)C(=O)COc2ccc(Cl)cc2)c(=O)[nH]c(=O)n1Cc1ccccc1` belongs 4.25%.
As to `CCOc1cc(C)c(S(=O)(=O)NCCCn2ccnc2)cc1C`, the “hERG current change (%, negative = inhibition) at 1uM” value is on record as 13.7%.
To `COC(=O)CCc1nc2c(C#N)c(-c3ccc(Cl)cc3)ccn2n1` belongs 3.54%; to `Cc1nonc1C(=O)N/N=C/c1cc2c(cc1Br)OCO2`, 13.2%; to `COc1ccccc1NC(=O)Cn1cnc2sc(C(=O)Nc3ccc(OC)c(OC)c3)c(C)c2c1=O`, 34.4%.
The figure for `CCOC(=O)c1c(NC(=S)Nc2ccccc2)sc2c1CCCCC2` is 12.8%.
To `O=C(NCc1ccccc1)C(c1ccc(F)cc1)N(Cc1cccs1)C(=O)c1cnccn1` (centres unmarked) belongs 8.73%; to `Cn1c(=O)c2c(nc(SCCN3CCOCC3)n2Cc2ccccc2)n(C)c1=O`, -5.7%; to `Cc1cccc(N2CCN(C(=O)Cn3nc(C)n4cccc4c3=O)CC2C)c1` (centres unmarked), 12%.
For the molecule `COc1ccc(/C=N/NC(=O)c2ccc3nc[nH]c3c2)c(OC)c1OC`, the “hERG current change (%, negative = inhibition) at 1uM” value is 12.2%.
As for `O=C(O)CSCNC(=O)C12CC3CC(CC(C3)C1)C2`, the “hERG current change (%, negative = inhibition) at 1uM” value is -0.117%.
The figure for `Cc1nc2ncnn2c(N2CCC(C(=O)NC3CCCC3)CC2)c1Cc1ccccc1` is -28.4%.
To `Cc1ccc(S(=O)(=O)Nc2cc(C)c(O)c(Sc3n[nH]c(C)n3)c2)cc1` belongs 8.18%.
The figure for `COc1ccc(-c2c3c(=O)n(C)c(=O)n(C)c3cn2C2CCCCC2)cc1` is 2.7%; for `COc1ccc(COC(=O)C2=C(C)NC(=O)NC2c2cccc(OC)c2OC)cc1` (centres unmarked) it is 9.89%.
`Cc1c(C(=O)N2CCCC2)sc(NC(=O)c2cccc(Cl)c2)c1C#N`: the “hERG current change (%, negative = inhibition) at 1uM” value stood at 18.8%.
The figure for `CC(=O)c1cccc(OCc2cc(C(=O)N(C)CCc3cnn(C)c3)no2)c1` is 14.2%.
To `O=C(NC(=S)Nc1ccc(N2CCOCC2)c(Cl)c1)C(c1ccccc1)c1ccccc1` belongs 6.04%.
To `COc1ccc(C(=O)NC(NC(=O)c2ccc(OC)cc2)c2ccccc2F)cc1` belongs 8.42%; to `CCCCc1nc2cc(C(=O)N3CCC(OC)CC3)ccc2o1`, 3.01%; to `N=c1c(C(=O)NCC2CCCO2)cc2c(=O)n3ccccc3nc2n1Cc1ccccc1` (centres unmarked), -72.3%.
Consider `c1ccc(CCCNCC2COc3ccccc3O2)cc1` (centres unmarked), for which the “hERG current change (%, negative = inhibition) at 1uM” value was found to be 0.427%.
To `Cc1ccccc1S(=O)(=O)NCc1ccc(N2CCN(C)CC2)cc1` belongs 7.99%; to `CC1C(=O)N2CCCc3cc(NS(=O)(=O)c4ccc([N+](=O)[O-])cc4)cc1c32` (centres unmarked), 3.74%.

For the origin of these results see PMC4336329 (PLoS ONE, 2015).
